{"source": "the supplement of paper PMC12645437", "about": "“Orthogonal IMiD-Degron Pairs Induce Selective Protein Degradation in Cells” (ACS Chemical Biology, 2025)", "note": "Some of the results follow.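 Note: jurkat cells carrying a lentiviral library of mutant zinc finger degrons fused to EGFP plus mCherry, mCherry+ cells FACS sorted, degron abundance counted by next-generation sequencing.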", "data": [{"target": "no compound (DMSO)", "assay": "log2 fold change of degron read counts, EGFP-low vs EGFP+ sorted cells; higher = lower degron-EGFP level without compound (poor expression or instability)", "conditions": "compound: DMSO control; 18 h", "values": [{"sequence": "FLCDVCGASFTQKGNLLRHIKL", "log2 fold change of degron read counts": -1.55}, {"sequence": "FTCEICGRLFTQKGNLLRHIKL", "log2 fold change of degron read counts": -1.32}, {"sequence": "FFCNQCGRLFTQKGNLLRHIKL", "log2 fold change of degron read counts": 1.3}, {"sequence": "FICEICGAQFTQKGNLLRHIKL", "log2 fold change of degron read counts": -1.71}, {"sequence": "FYCPVCGAKFTQKGNLLRHIKL", "log2 fold change of degron read counts": -0.689}, {"sequence": "FVCNQCGAIFTQKGNLLRHIKL", "log2 fold change of degron read counts": 0.0851}, {"sequence": "FECSVCGHWFTQKGNLLRHIKL", "log2 fold change of degron read counts": 0.35}, {"sequence": "FKCEVCGANFTQKGNLLRHIKL", "log2 fold change of degron read counts": -0.504}, {"sequence": "FLCNQCGRMFTQKGNLLRHIKL", "log2 fold change of degron read counts": 0.285}, {"sequence": "FHCNQCGRFFTQKGNLLRHIKL", "log2 fold change of degron read counts": 0.837}, {"sequence": "FECEICGANFTQKGNLLRHIKL", "log2 fold change of degron read counts": -0.61}, {"sequence": "FLCPICGAPFTQKGNLLRHIKL", "log2 fold change of degron read counts": 0.404}, {"sequence": "FFCNQCGAHFTQKGNLLRHIKL", "log2 fold change of degron read counts": 0.177}, {"sequence": "LSCNQCGFVCTQKGNLLRHIKL", "log2 fold change of degron read counts": 0.095}, {"sequence": "FHCSVCGHYFTQKGNLLRHIKL", "log2 fold change of degron read counts": 0.574}, {"sequence": "FMCPICGARFTQKGNLLRHIKL", "log2 fold change of degron read counts": -0.458}, {"sequence": "FDCNVCGALFTQKGNLLRHIKL", "log2 fold change of degron read counts": 0.159}, {"sequence": "LQCPICGFNCTQKGNLLRHIKL", "log2 fold change of degron read counts": 0.747}, {"sequence": "LLCPICGFPCTQKGNLLRHIKL", "log2 fold change of degron read counts": 1.28}, {"sequence": "FKCPQCGAYFTQKGNLLRHIKL", "log2 fold change of degron read counts": 0.349}, {"sequence": "LDCPICGFQCTQKGNLLRHIKL", "log2 fold change of degron read counts": 0.519}, {"sequence": "LVCNQCGFKCTQKGNLLRHIKL", "log2 fold change of degron read counts": 0.00903}, {"sequence": "FRCEICGHLFTQKGNLLRHIKL", "log2 fold change of degron read counts": -0.958}, {"sequence": "FSCNICGAIFTQKGNLLRHIKL", "log2 fold change of degron read counts": 0.194}, {"sequence": "LYCPICGFNCTQKGNLLRHIKL", "log2 fold change of degron read counts": 1.08}, {"sequence": "FMCNVCGAQFTQKGNLLRHIKL", "log2 fold change of degron read counts": -0.979}, {"sequence": "FCCEICGHEFTQKGNLLRHIKL", "log2 fold change of degron read counts": -2.82}, {"sequence": "FACNICGAWFTQKGNLLRHIKL", "log2 fold change of degron read counts": 0.615}, {"sequence": "LGCPICGFVCTQKGNLLRHIKL", "log2 fold change of degron read counts": 1.32}, {"sequence": "FTCNQCGRLFTQKGNLLRHIKL", "log2 fold change of degron read counts": 0.0312}, {"sequence": "LFCPICGFMCTQKGNLLRHIKL", "log2 fold change of degron read counts": 1.48}, {"sequence": "FICNICGAGFTQKGNLLRHIKL", "log2 fold change of degron read counts": -0.313}, {"sequence": "FACNVCGAGFTQKGNLLRHIKL", "log2 fold change of degron read counts": -0.923}, {"sequence": "FKCDICGAAFTQKGNLLRHIKL", "log2 fold change of degron read counts": -2.39}, {"sequence": "FQCEQCGARFTQKGNLLRHIKL", "log2 fold change of degron read counts": -1.93}, {"sequence": "LNCPICGFACTQKGNLLRHIKL", "log2 fold change of degron read counts": 0.806}, {"sequence": "FNCNICGADFTQKGNLLRHIKL", "log2 fold change of degron read counts": -1.53}, {"sequence": "FICDVCGAQFTQKGNLLRHIKL", "log2 fold change of degron read counts": -1.14}, {"sequence": "FQCNQCGHPFTQKGNLLRHIKL", "log2 fold change of degron read counts": -0.157}, {"sequence": "LRCEICGFSCTQKGNLLRHIKL", "log2 fold change of degron read counts": -0.352}, {"sequence": "LMCNQCGFTCTQKGNLLRHIKL", "log2 fold change of degron read counts": 0.365}, {"sequence": "FVCEQCGARFTQKGNLLRHIKL", "log2 fold change of degron read counts": -2.25}, {"sequence": "FQCPICGHRFTQKGNLLRHIKL", "log2 fold change of degron read counts": -0.179}, {"sequence": "FHCNQCGHLFTQKGNLLRHIKL", "log2 fold change of degron read counts": 0.298}, {"sequence": "FKCNICGAMFTQKGNLLRHIKL", "log2 fold change of degron read counts": -0.858}, {"sequence": "FRCPICGAHFTQKGNLLRHIKL", "log2 fold change of degron read counts": 0.0476}, {"sequence": "FICEICGRFFTQKGNLLRHIKL", "log2 fold change of degron read counts": -0.294}, {"sequence": "FECPICGHYFTQKGNLLRHIKL", "log2 fold change of degron read counts": -0.786}, {"sequence": "FFCPVCGAGFTQKGNLLRHIKL", "log2 fold change of degron read counts": 0.484}, {"sequence": "FLCDVCGAWFTQKGNLLRHIKL", "log2 fold change of degron read counts": -0.522}]}]}
